Measurements: PMC7819943, “Rice protein-binding microarrays: a tool to detect cis-acting elements near promoter regions in rice”
Some of the results follow.

target: T1, OsWOX13 (Oryza sativa, UniProt Q5QMM3 1-267); test: protein-binding microarray (RPBM); PBS, 2% BSA, 51.3 ng/ul salmon testes DNA, 50 uM zinc acetate, 200 nM TF, 25 C, 1 h; high values mean tight binding; settings: protein: recombinant; tags: N-terminal polyhistidine and DsRed monomer fusion (pET32a); label: CyDye5-dUTP incorporated in the synthesized complementary strand; 3' TTTTT single-stranded linker to array surface; dsDNA, one strand shown
T1 sequence: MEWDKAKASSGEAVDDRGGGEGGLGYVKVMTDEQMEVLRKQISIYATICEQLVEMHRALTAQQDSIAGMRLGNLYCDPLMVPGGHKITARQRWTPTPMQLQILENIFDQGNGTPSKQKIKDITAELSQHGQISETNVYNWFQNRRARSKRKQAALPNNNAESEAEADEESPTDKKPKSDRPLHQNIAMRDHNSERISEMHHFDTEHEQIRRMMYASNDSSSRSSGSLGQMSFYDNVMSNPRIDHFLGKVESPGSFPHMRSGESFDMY
In short: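 A custom Agilent array was converted to double-stranded form by primer extension with Cy5-dUTP and blocked with 2% BSA. Protein at 200 nM in PBS with 2% BSA, salmon testes DNA and 50 µM zinc acetate was applied for 1 h at 25 °C, followed by washing. The proteins were polyhistidine–DsRed N-terminal fusions of transcription factors, expressed in E. coli BL21-CodonPlus and Ni–NTA-purified. The binding signal is per-feature fluorescence intensity (arbitrary units) from an Axon 4000B scanner.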

Sequence	binding signal
CTGTTACAATTGATTGGCAAACCAAGTATTACGAATCGAGCGGAGTCACCTAGTGCAG	48200 fluorescence intensity (a.u.)
TAAGATTGGCTTCGCAGAAATACCATCACTTAAATCGGCTCGGAGTCACCTAGTGCAG	16300 fluorescence intensity (a.u.)
ATTTACATCTGATGACAATCAACTCTCTTACACATGGTATCGGAGTCACCTAGTGCAG	7320 fluorescence intensity (a.u.)
TGCAATTAGCGATCCCACCTAATCTGCGGTTACAGCGATACGGAGTCACCTAGTGCAG	3440 fluorescence intensity (a.u.)
GGACCTGTAAATTGCACATTTGTACATCCAACTGAGCACACGGAGTCACCTAGTGCAG	3480 fluorescence intensity (a.u.)
GTCCAATCCCTTACCGTTGATTGGCCACGTGGCTAAAACTCGGAGTCACCTAGTGCAG	16000 fluorescence intensity (a.u.)
CTTACCGTGCAAATTGAATTTTGTTACTGTTTGGTACTTCCGGAGTCACCTAGTGCAG	5060 fluorescence intensity (a.u.)
ATCATCATAATTTATTTAAAATTGAATTCCGTTGAGCGAGCGGAGTCACCTAGTGCAG	21200 fluorescence intensity (a.u.)
CCTAATTAACAATGCAGCAAAAGAAAGTTTCTGAGAAAGTCGGAGTCACCTAGTGCAG	22400 fluorescence intensity (a.u.)
CTCGTTAGATTTTGATCAATGATTAGTCCAAATTATACATCGGAGTCACCTAGTGCAG	15200 fluorescence intensity (a.u.)
GTATATTGTATAATAATTGATAACTTACCGATATATTATACGGAGTCACCTAGTGCAG	23400 fluorescence intensity (a.u.)
GCTTGATATGCGTAATTTCCTCGGAACTCATATAATACTTCGGAGTCACCTAGTGCAG	7590 fluorescence intensity (a.u.)
CCAACCAATGACTATAAACGTAATTACTAATTATAGGAAGCGGAGTCACCTAGTGCAG	9310 fluorescence intensity (a.u.)
GTCATGCAACCAATCACTGAAATTATGCTTATACATACACCGGAGTCACCTAGTGCAG	19500 fluorescence intensity (a.u.)
CAGATTAGATCAGAATTGAGGCGTTTTGGTCCCACTGAATCGGAGTCACCTAGTGCAG	5260 fluorescence intensity (a.u.)
GTAATTAATTACTGCAGAGAAACGACAGTGCTGATAACCGCGGAGTCACCTAGTGCAG	38800 fluorescence intensity (a.u.)
ATTCATTGACAAGTTAAGGGACCTTAGATGAACTTATTCCCGGAGTCACCTAGTGCAG	4620 fluorescence intensity (a.u.)
ATGGACGGTTTGATTGATGATCAACTCAAAGTCCAACAGACGGAGTCACCTAGTGCAG	43900 fluorescence intensity (a.u.)
GAATCCTGAGATTGACGAAGTCACCACTTGCATCGTCGACCGGAGTCACCTAGTGCAG	14000 fluorescence intensity (a.u.)
TTAGGTTGATGTGATGGCTAATTTATACAATAATATCTTACGGAGTCACCTAGTGCAG	4710 fluorescence intensity (a.u.)
ATTCTTCGGTTCTTGCTAATTGGTTGTTTGATCTGGAAGACGGAGTCACCTAGTGCAG	5040 fluorescence intensity (a.u.)

Sequence	binding signal
CAGATGACAACTGCTGATTTTGACTTTGACTCTGAATCTGCGGAGTCACCTAGTGCAG	9960 fluorescence intensity (a.u.)
AACTCAAATTAAATTTCGTTGCAACTGATAAGCCAACAACCGGAGTCACCTAGTGCAG	7460 fluorescence intensity (a.u.)
TATTGATTGCGCAATTATTCGGCAGCGTCTATCTGTCTCTCGGAGTCACCTAGTGCAG	43800 fluorescence intensity (a.u.)
GGTCACATATATTAGATTGGGGTCACATTTAAGGGAGTCACGGAGTCACCTAGTGCAG	4740 fluorescence intensity (a.u.)
GCCTCTAATTCAATCCGTTACAGATTAAATCATTCATGACCGGAGTCACCTAGTGCAG	13000 fluorescence intensity (a.u.)
ATAAACAAATTAGGCCCACAAGTGAATTTGGCCCACTTCACGGAGTCACCTAGTGCAG	6440 fluorescence intensity (a.u.)
ACTAACCACTCATTAACGTGATCACGCTTGTCTATCATTGCGGAGTCACCTAGTGCAG	9080 fluorescence intensity (a.u.)
TTCAAAATTAGTTGTATTTAGCAGCACAATTATAAAAGGGCGGAGTCACCTAGTGCAG	5050 fluorescence intensity (a.u.)
TTTGATAGGAACCGATTTCAATTTGTGATTCCTACGTATACGGAGTCACCTAGTGCAG	14700 fluorescence intensity (a.u.)
GCAAATTGTCCATCTCTGACGCCTCATCTGAATTGACTGACGGAGTCACCTAGTGCAG	13700 fluorescence intensity (a.u.)
TCAACTGATGACTTGGATTGGGTCTCCAGCATGTATGGTCCGGAGTCACCTAGTGCAG	8070 fluorescence intensity (a.u.)
AGTTATTTCTAAATTATATTAATATATGGACTCTAGTCTCCGGAGTCACCTAGTGCAG	5540 fluorescence intensity (a.u.)
GATTACATTTCAATTCAATTTCAATCCCATTCACTTTTGCCGGAGTCACCTAGTGCAG	5750 fluorescence intensity (a.u.)
ATAACTAATATTTAATTAATTATACGTTAATACATATATTCGGAGTCACCTAGTGCAG	11900 fluorescence intensity (a.u.)
TGACTAATTGGCTTGGTGATACCGAGTACTGCTCCCTTCGCGGAGTCACCTAGTGCAG	49100 fluorescence intensity (a.u.)
GCCAATTACAAATTCAACACCTAAATTTAAGCAAACACATCGGAGTCACCTAGTGCAG	7010 fluorescence intensity (a.u.)
ATAATTACTTAAATTGTTTGAATAAGACGAACGATCAAACCGGAGTCACCTAGTGCAG	29600 fluorescence intensity (a.u.)
GGTAATTGATCGATCCTTGACTTCTTAATGCATATTATTGCGGAGTCACCTAGTGCAG	29300 fluorescence intensity (a.u.)
AGCAAATTAACTACAACTGCTAAAGCTAGGCTGTAACCCACGGAGTCACCTAGTGCAG	15500 fluorescence intensity (a.u.)
TTAATGGACGCATGGACGAAATTGATCGGAACGGTTGGAACGGAGTCACCTAGTGCAG	3210 fluorescence intensity (a.u.)
TTGATTGGAAAGATTGGAAAGAATTGAATGCGAATTGGTACGGAGTCACCTAGTGCAG	34500 fluorescence intensity (a.u.)

Sequence	binding signal
ATGCAGTGTGATTTTAGGTGATTACTACTCCATTCTTGCTCGGAGTCACCTAGTGCAG	13900 fluorescence intensity (a.u.)
GCCAACCTTATAGCTAATTATTATATATATTGACTTTAAGCGGAGTCACCTAGTGCAG	4860 fluorescence intensity (a.u.)
GTGTGCAGACTGGTCAATTAGAAACACACATGCTTTTGAACGGAGTCACCTAGTGCAG	3470 fluorescence intensity (a.u.)
TTGTAATTTTCCCAACTTCAAATTCCAGCCCATTTCGAATCGGAGTCACCTAGTGCAG	3560 fluorescence intensity (a.u.)
AAGCCAATTAAACAACCAGATACTCAAGTTATAACATAATCGGAGTCACCTAGTGCAG	3700 fluorescence intensity (a.u.)
AGCAAATGATGGGCTTTCATGGCTGCTTCCATGGACGTGGCGGAGTCACCTAGTGCAG	4780 fluorescence intensity (a.u.)
AATCCTATGCTAATTCATCAAATTAGACTCGATTCTATCGCGGAGTCACCTAGTGCAG	4540 fluorescence intensity (a.u.)
TGGTTGATTTGATGAGATGAGATCCCAAACTATTACAAAACGGAGTCACCTAGTGCAG	25700 fluorescence intensity (a.u.)
CACTTTTAATCAGGTGATTAGGATTTACCAGGTGCACACACGGAGTCACCTAGTGCAG	16500 fluorescence intensity (a.u.)
CTAATAATGAAATTTAGACTTATATTAGGACTATATATATCGGAGTCACCTAGTGCAG	5550 fluorescence intensity (a.u.)
GCGATTTGATTGATGCTGACCATCTCACCTCAACCGTCGGCGGAGTCACCTAGTGCAG	49300 fluorescence intensity (a.u.)
TTTGTCACTCTTGTGACATGTCAATTAACGATTTGTCACACGGAGTCACCTAGTGCAG	6810 fluorescence intensity (a.u.)
TCATAAATTATCCGTATCATATTTAATTTATACTGTGGCCCGGAGTCACCTAGTGCAG	38400 fluorescence intensity (a.u.)
TCCAGGTGATGGTAATGATATTGACATGCCCTCATCTAGTCGGAGTCACCTAGTGCAG	3770 fluorescence intensity (a.u.)
ATTAAATTGATATTAGAACAAACTAAATACTACGAGGTCCCGGAGTCACCTAGTGCAG	38500 fluorescence intensity (a.u.)
ATAGGGAGTTACTAATTATCTTGATTCTTGTGGCACATTTCGGAGTCACCTAGTGCAG	3200 fluorescence intensity (a.u.)
AAACCTTCAAATTAGTAATGGCATGTGTCTAATTAACCCACGGAGTCACCTAGTGCAG	5310 fluorescence intensity (a.u.)
CACGAACCCAATCAATCCAATGGATTTCCATCCTTGTAAACGGAGTCACCTAGTGCAG	8440 fluorescence intensity (a.u.)
ATGTTATCAAATTTATAGGAAAATTGATCAGCATCTATAACGGAGTCACCTAGTGCAG	19600 fluorescence intensity (a.u.)
AGTATAATGACTGTTAGATCTCCATAAAACTGGCCACAAACGGAGTCACCTAGTGCAG	3510 fluorescence intensity (a.u.)
CTTAATTATTCGTGATTTTGTAGTAGAATATCATGCTAATCGGAGTCACCTAGTGCAG	50500 fluorescence intensity (a.u.)

Sequence	binding signal
GGAAGATTGCCATCAGCAATAGCAAGGGTCACTTCTTTGTCGGAGTCACCTAGTGCAG	13000 fluorescence intensity (a.u.)
GAAACAGCACAAATTTTGATGTGACAGCTTCATATTTCCCCGGAGTCACCTAGTGCAG	4420 fluorescence intensity (a.u.)
AAAACTAATTACAAAATCCGCAAGTAAATCGTGAGGCGAACGGAGTCACCTAGTGCAG	14400 fluorescence intensity (a.u.)
CCTAATTAATCTGTCATTAGCAAATATTTATTGTAGCATCCGGAGTCACCTAGTGCAG	47000 fluorescence intensity (a.u.)
CAATGGGTTCAACATAATTGATGAAAATAATAAATGCCAACGGAGTCACCTAGTGCAG	12600 fluorescence intensity (a.u.)
AGCCTCGTTTTGAAGCCTAATTATCAATCTGATCTTACTTCGGAGTCACCTAGTGCAG	4020 fluorescence intensity (a.u.)
TCATCAAATGATTAACTAGTGTTATGCCCGTACATTGTAGCGGAGTCACCTAGTGCAG	12600 fluorescence intensity (a.u.)
TATATGATTTCCATAATTTCAATATAAGATCGCAACATTGCGGAGTCACCTAGTGCAG	15700 fluorescence intensity (a.u.)
ATTGATTTGGTTACAGAGGACTCGGAATATGGGTGGTGATCGGAGTCACCTAGTGCAG	20800 fluorescence intensity (a.u.)
TCATCTTTTCAATTATGTTTATACTTATTAGTAAAACATTCGGAGTCACCTAGTGCAG	3480 fluorescence intensity (a.u.)
ACTGATATTCTTTCAATTTTGTGTTGACAAGTAACAAATACGGAGTCACCTAGTGCAG	3600 fluorescence intensity (a.u.)
TTTCAAGTTTTCAACCAATCACAACCATCGTTGATTTTATCGGAGTCACCTAGTGCAG	4930 fluorescence intensity (a.u.)
AGAAATTAACCAAATTCCTAAACATGTTGGCACGACTTAGCGGAGTCACCTAGTGCAG	12500 fluorescence intensity (a.u.)
CAAATGTTTCTAAATGATTGGCTTAATGTGTCAACCGGACCGGAGTCACCTAGTGCAG	28700 fluorescence intensity (a.u.)
AAATAGATTTGGAGTGAGCATCAAGACTCTGCTCTCGGCTCGGAGTCACCTAGTGCAG	8340 fluorescence intensity (a.u.)
CTTGATCCAGGCTCAGATTGAAACTGGCGGTCGAGAGATTCGGAGTCACCTAGTGCAG	3890 fluorescence intensity (a.u.)
ATCAATCAATCAATCAATCAGCAAAGAGCATCCCAAACAACGGAGTCACCTAGTGCAG	33900 fluorescence intensity (a.u.)
ATGTTATGAATTGATTGGGTTAGGGAGTTTTCTTCTGGTCCGGAGTCACCTAGTGCAG	35700 fluorescence intensity (a.u.)
CCTAGCCCTAATTGATCCTTGCCTCGATGTTTTCCCTCCGCGGAGTCACCTAGTGCAG	19100 fluorescence intensity (a.u.)
ACTTTGACATAGTTGTTAATTACATATGAAAGCGGCTTAACGGAGTCACCTAGTGCAG	22900 fluorescence intensity (a.u.)
GGGGCTTGATTTATTGGGGTTTTGATAGTTGAGAACTTGACGGAGTCACCTAGTGCAG	30900 fluorescence intensity (a.u.)
